Assay results taken from the supplement of paper PMC8728848.
This is one part of the list.

What was measured:
Assay in all cases: glycan array binding signal (z-score within array); higher = stronger binding
Settings in all cases: glycan notation: IUPAC condensed, linker removed
Neu5Ac(a2-3)Gal = target: Neu5Ac(a2-3)Gal
Outline: (§1)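 The binding signal is a Z-score computed within each array. Data were drawn from 3228 arrays in the Consortium for Functional Glycomics database, restricted to those with a known protein sequence. Scores were averaged over arrays of the same protein sequence at different concentrations or buffers, and over linkers, and negative values can be taken as non-binding.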

[1] = target: Neu5Ac(a2-3)Gal(b1-3)GalNAc
Outline: as §1

[2] = target: Neu5Ac(a2-3)Gal(b1-3)GalNAc(b1-3)Gal(a1-4)Gal(b1-4)Glc
Outline: as §1

[3] = target: Neu5Ac(a2-3)Gal(b1-3)GalNAc(b1-4)Gal(b1-4)Glc
Outline: as §1

[4] = target: Neu5Ac(a2-3)Gal(b1-3)GalNAc(b1-4)[Neu5Ac(a2-3)]Gal(b1-4)Glc
Outline: as §1

[5] = target: Neu5Ac(a2-3)Gal(b1-3)GalNAc(b1-4)[Neu5Ac(a2-8)Neu5Ac(a2-3)]Gal(b1-4)Glc
Outline: as §1

[6] = target: Neu5Ac(a2-3)Gal(b1-3)GalNAc6S
Outline: as §1

[7] = target: Neu5Ac(a2-3)Gal(b1-3)GlcNAc
Outline: as §1

[8] = target: Neu5Ac(a2-3)Gal(b1-3)GlcNAc(b1-2)Man
Outline: as §1

[9] = target: Neu5Ac(a2-3)Gal(b1-3)GlcNAc(b1-2)Man(a1-3)[GlcNAc(b1-4)][Neu5Ac(a2-3)Gal(b1-3)GlcNAc(b1-2)Man(a1-6)]Man(b1-4)GlcNAc(b1-4)GlcNAc
Outline: as §1

[10] = target: Neu5Ac(a2-3)Gal(b1-3)GlcNAc(b1-2)Man(a1-3)[Neu5Ac(a2-3)Gal(b1-3)GlcNAc(b1-2)Man(a1-6)]Man(b1-4)GlcNAc(b1-4)GlcNAc
Outline: as §1

[11] = target: Neu5Ac(a2-3)Gal(b1-3)GlcNAc(b1-2)[Neu5Ac(a2-3)Gal(b1-3)GlcNAc(b1-4)]Man(a1-6)[Neu5Ac(a2-3)Gal(b1-3)GlcNAc(b1-2)Man(a1-3)]Man(b1-4)GlcNAc(b1-4)GlcNAc
Outline: as §1

[12] = target: Neu5Ac(a2-3)Gal(b1-3)GlcNAc(b1-3)Gal(b1-3)GlcNAc
Outline: as §1

[13] = target: Neu5Ac(a2-3)Gal(b1-3)GlcNAc(b1-3)Gal(b1-4)GlcNAc
Outline: as §1

[14] = target: Neu5Ac(a2-3)Gal(b1-3)GlcNAc(b1-3)GalNAc
Outline: as §1

[15] = target: Neu5Ac(a2-3)Gal(b1-3)GlcNAc(b1-4)Gal(b1-4)Glc
Outline: as §1

[16] = target: Neu5Ac(a2-3)Gal(b1-3)GlcNAc(b1-6)GalNAc
Outline: as §1

[17] = target: Neu5Ac(a2-3)Gal(b1-3)GlcNAc6S
Outline: as §1

[18] = target: Neu5Ac(a2-3)Gal(b1-3)[Fuc(a1-4)]GlcNAc
Outline: as §1

[19] = target: Neu5Ac(a2-3)Gal(b1-3)[Fuc(a1-4)]GlcNAc(b1-3)Gal(b1-3)[Fuc(a1-4)]GlcNAc
Outline: as §1

[20] = target: Neu5Ac(a2-3)Gal(b1-3)[Fuc(a1-4)]GlcNAc(b1-3)Gal(b1-4)[Fuc(a1-3)]GlcNAc
Outline: as §1

[21] = target: Neu5Ac(a2-3)Gal(b1-3)[GlcNAc(b1-6)]GalNAc
Outline: as §1

[22] = target: Neu5Ac(a2-3)Gal(b1-3)[Neu5Ac(a2-6)]GalNAc
Outline: as §1

[23] = target: Neu5Ac(a2-3)Gal(b1-3)[Neu5Ac(a2-6)]GlcNAc(b1-3)[Fuc(a1-3)[Gal(b1-4)]GlcNAc(b1-6)]Gal(b1-4)Glc
Outline: as §1

[24] = target: Neu5Ac(a2-3)Gal(b1-3)]Neu5Ac(a2-3)Gal(b1-4)]GlcNAc
Outline: as §1

Neu5Ac(a2-3)Gal(b1-4)Glc = target: Neu5Ac(a2-3)Gal(b1-4)Glc
Outline: as §1

[25] = target: Neu5Ac(a2-3)Gal(b1-4)GlcNAc
Outline: as §1

[26] = target: Neu5Ac(a2-3)Gal(b1-4)GlcNAc(b1-2)Man
Outline: as §1

[27] = target: Neu5Ac(a2-3)Gal(b1-4)GlcNAc(b1-2)Man(a1-3)[GlcNAc(b1-4)][Neu5Ac(a2-3)Gal(b1-4)GlcNAc(b1-2)Man(a1-6)]Man(b1-4)GlcNAc(b1-4)GlcNAc
Outline: as §1

[28] = target: Neu5Ac(a2-3)Gal(b1-4)GlcNAc(b1-2)Man(a1-3)[Neu5Ac(a2-3)Gal(b1-4)GlcNAc(b1-2)Man(a1-6)]Man(b1-4)GlcNAc(b1-4)GlcNAc
Outline: as §1

[29] = target: Neu5Ac(a2-3)Gal(b1-4)GlcNAc(b1-2)Man(a1-3)[Neu5Ac(a2-3)Gal(b1-4)GlcNAc(b1-2)Man(a1-6)]Man(b1-4)GlcNAc(b1-4)[Fuc(a1-6)]GlcNAc
Outline: as §1

[30] = target: Neu5Ac(a2-3)Gal(b1-4)GlcNAc(b1-2)Man(a1-3)[Neu5Ac(a2-6)Gal(b1-4)GlcNAc(b1-2)Man(a1-6)]Man(b1-4)GlcNAc(b1-4)GlcNAc
Outline: as §1

[31] = target: Neu5Ac(a2-3)Gal(b1-4)GlcNAc(b1-2)[Neu5Ac(a2-3)Gal(b1-4)GlcNAc(b1-4)]Man(a1-3)[GlcNAc(b1-4)][Neu5Ac(a2-3)Gal(b1-4)GlcNAc(b1-2)[Neu5Ac(a2-3)Gal(b1-4)GlcNAc(b1-6)]Man(a1-6)]Man(b1-4)GlcNAc(b1-4)GlcNAc
Outline: as §1

[32] = target: Neu5Ac(a2-3)Gal(b1-4)GlcNAc(b1-2)[Neu5Ac(a2-3)Gal(b1-4)GlcNAc(b1-4)]Man(a1-3)[GlcNAc(b1-4)][Neu5Ac(a2-3)Gal(b1-4)GlcNAc(b1-4)Man(a1-6)]Man(b1-4)GlcNAc(b1-4)GlcNAc
Outline: as §1

[33] = target: Neu5Ac(a2-3)Gal(b1-4)GlcNAc(b1-2)[Neu5Ac(a2-3)Gal(b1-4)GlcNAc(b1-6)]Man(a1-6)[Neu5Ac(a2-3)Gal(b1-4)GlcNAc(b1-2)Man(a1-3)]Man(b1-4)GlcNAc(b1-4)GlcNAc
Outline: as §1

[34] = target: Neu5Ac(a2-3)Gal(b1-4)GlcNAc(b1-2)[Neu5Ac(a2-3)Gal(b1-4)GlcNAc(b1-6)]Man(a1-6)[Neu5Ac(a2-3)Gal(b1-4)GlcNAc(b1-2)Man(a1-3)][GlcNAc(b1-4)]Man(b1-4)GlcNAc(b1-4)GlcNAc
Outline: as §1

[35] = target: Neu5Ac(a2-3)Gal(b1-4)GlcNAc(b1-3)Gal
Outline: as §1

[36] = target: Neu5Ac(a2-3)Gal(b1-4)GlcNAc(b1-3)Gal(b1-3)GlcNAc
Outline: as §1

[37] = target: Neu5Ac(a2-3)Gal(b1-4)GlcNAc(b1-3)Gal(b1-4)GlcNAc
Outline: as §1

[38] = target: Neu5Ac(a2-3)Gal(b1-4)GlcNAc(b1-3)Gal(b1-4)GlcNAc(b1-2)Man(a1-3)[Neu5Ac(a2-3)Gal(b1-4)GlcNAc(b1-3)Gal(b1-4)GlcNAc(b1-2)Man(a1-6)]Man(b1-4)GlcNAc(b1-4)GlcNAc
Outline: as §1

[39] = target: Neu5Ac(a2-3)Gal(b1-4)GlcNAc(b1-3)Gal(b1-4)GlcNAc(b1-3)Gal(b1-4)GlcNAc
Outline: as §1

[40] = target: Neu5Ac(a2-3)Gal(b1-4)GlcNAc(b1-3)Gal(b1-4)GlcNAc(b1-3)Gal(b1-4)GlcNAc(b1-2)Man(a1-3)[Neu5Ac(a2-3)Gal(b1-4)GlcNAc(b1-3)Gal(b1-4)GlcNAc(b1-3)Gal(b1-4)GlcNAc(b1-2)Man(a1-6)]GalNAc
Outline: as §1

[41] = target: Neu5Ac(a2-3)Gal(b1-4)GlcNAc(b1-3)Gal(b1-4)GlcNAc(b1-3)GalNAc
Outline: as §1

[42] = target: Neu5Ac(a2-3)Gal(b1-4)GlcNAc(b1-3)Gal(b1-4)GlcNAc(b1-3)[Neu5Ac(a2-3)Gal(b1-4)GlcNAc(b1-3)Gal(b1-4)GlcNAc(b1-6)]GalNAc
Outline: as §1

[43] = target: Neu5Ac(a2-3)Gal(b1-4)GlcNAc(b1-3)Gal(b1-4)GlcNAc(b1-6)[Gal(b1-3)]GalNAc
Outline: as §1

B1: SSR2 (Sclerotium rolfsii) (protein)
chain: MVYKITVRVYQTNPDAFFHPVEKTVWKYANGGTWSITDDQHVLTMGGSGTSGTLRFHADNGESFTATFGVHNYKRWCDIVTNLAADETGMVINQQYYSQKNREEARERQLSNYQVKNAKGRNFQIVYTEAEGNDLHANLIIG
glycan array binding signal (z-score) (Neu5Ac(a2-3)Gal): -0.283
glycan array binding signal (z-score) [1]: 2.28
glycan array binding signal (z-score) [2]: -0.284
glycan array binding signal (z-score) [3]: -0.202
glycan array binding signal (z-score) [4]: -0.28
glycan array binding signal (z-score) [5]: -0.286
glycan array binding signal (z-score) [6]: 2.31
glycan array binding signal (z-score) [7]: -0.272
glycan array binding signal (z-score) [8]: -0.296
glycan array binding signal (z-score) [9]: -0.29
glycan array binding signal (z-score) [10]: -0.273
glycan array binding signal (z-score) [11]: -0.136
glycan array binding signal (z-score) [12]: -0.291
glycan array binding signal (z-score) [13]: -0.288
glycan array binding signal (z-score) [14]: -0.272
glycan array binding signal (z-score) [15]: -0.368
glycan array binding signal (z-score) [16]: -0.294
glycan array binding signal (z-score) [17]: -0.264
glycan array binding signal (z-score) [18]: -0.284
glycan array binding signal (z-score) [19]: -0.284
glycan array binding signal (z-score) [20]: -0.26
glycan array binding signal (z-score) [21]: 0.987
glycan array binding signal (z-score) [22]: 0.198
glycan array binding signal (z-score) [23]: -0.288
glycan array binding signal (z-score) [24]: -0.219
glycan array binding signal (z-score) (Neu5Ac(a2-3)Gal(b1-4)Glc): -0.264
glycan array binding signal (z-score) [25]: -0.29
glycan array binding signal (z-score) [26]: -0.265
glycan array binding signal (z-score) [27]: -0.284
glycan array binding signal (z-score) [28]: -0.284
glycan array binding signal (z-score) [29]: -0.257
glycan array binding signal (z-score) [30]: -0.298
glycan array binding signal (z-score) [31]: -0.282
glycan array binding signal (z-score) [32]: -0.284
glycan array binding signal (z-score) [33]: -0.363
glycan array binding signal (z-score) [34]: -0.29
glycan array binding signal (z-score) [35]: -0.288
glycan array binding signal (z-score) [36]: -0.291
glycan array binding signal (z-score) [37]: -0.288
glycan array binding signal (z-score) [38]: -0.224
glycan array binding signal (z-score) [39]: -0.287
glycan array binding signal (z-score) [40]: -0.191
glycan array binding signal (z-score) [41]: -0.287
glycan array binding signal (z-score) [42]: -0.267
glycan array binding signal (z-score) [43]: 0.625
